Screen size: about 140,000 compounds; about 240 (0.17%) were called active. This list was built around the results that the source calls inconclusive (neither active nor inactive); the mix of calls is not that of the screen. Calls follow the shape of the dose curve; as a rule, active = well fitted inhibition curve with a large enough effect; inconclusive = small, poorly fitted or top-dose-only effect; inactive = no such curve, though single readings can be large or run the other way. Potencies beside an inconclusive call are fits to weak or partial responses and may not hold up.
Assay: Primary qHTS assay for inhibitors of alpha-synuclein gene (SNCA) expression; also: nearly all actives have a fitted effect of over 45% in size
Conditions: HEK-293 SNCA-luciferase knock-in, luminescence, 24 h; series mostly up to 57.2 µM
Potency is read from the fitted curve at half-maximal effect; tags tell the direction and shape of the fitted curve.

Row | Structure (SMILES) | Potency
1 | c1ccc(N2CCN(Cc3cc(CC4(NC5CCOCC5)COC4)no3)CC2)cc1 | inactive
2 | O=C(NCCc1ccc(Cl)cc1)c1nc(-c2cccnc2)c2cnccn12 | inconclusive: 3.16 µM [inhibitor, partial curve, poor fit]
3 | CC(C)(C)C(=O)N1CCC2(CC1)NCCc1c2[nH]c2ccccc12 | inconclusive: 39.8 µM [inhibitor, partial curve, poor fit]
4 | O=C1c2cnc(-c3cccnc3)nc2OCCN1Cc1ccccc1 | inactive
5 | O=C1CO[C@H]2CN(Cc3ccc4c(c3)OCO4)C[C@H]2N1Cc1ccccn1 | inconclusive: 56.2 µM [inhibitor, single point]
6 | CCc1cccc(NC(=O)Cn2c(-c3ccc(F)cc3)nc(C)c(CCO)c2=O)c1 | inconclusive: 15.8 µM [inhibitor, single point]
7 | N#Cc1cc([N+](=O)[O-])c2sc(C(N)=O)[n+]([O-])c2c1 | inactive
8 | O=C(C1CCCC1)N1CC2(CCCN2C2COC2)Cc2ccccc21 (centres undefined) | inconclusive: 20 µM [inhibitor, single point]
9 | CCOC(=O)c1c(N)n(-c2ccc(CC)cc2)c2nc3ccccc3nc12 | inconclusive: 39.8 µM [inhibitor, single point]
10 | O=C(NCc1cccc(Cl)c1)c1cn2cc(-c3cccc(C(F)(F)F)c3)sc2n1 | inconclusive: 1.58 µM [inhibitor, full curve, poor fit]
11 | COc1ccc(NC(=O)[C@@H]2C[C@@H](c3ccc(F)cc3)N([S+](=O)([O-])c3ccccc3)C2)c(C)c1 | inconclusive: 15.8 µM [inhibitor, single point]
12 | Cc1noc(C)c1C(=O)N1CCN(S(=O)(=O)c2ccc(Cl)nc2)C(=O)C1 | inconclusive: 1.41 µM [inhibitor, full curve, poor fit]
13 | Cc1ccccc1CN1Cc2nc(OCc3cccnc3)ccc2OCC1=O | inconclusive: 28.2 µM [inhibitor, single point]
14 | O=C(C1CCc2nnc(C3CCN([S+](=O)([O-])c4ccccc4Cl)CC3)n21)N1CCCCC1 (centres undefined) | inactive
15 | CCOC(=O)Cc1ccc(NC(=O)NC(C)c2c(-n3cccc3)sc(C)c2C)cc1 (centres undefined) | inconclusive: 31.6 µM [inhibitor, single point]
16 | Cc1nnnn1CCCN1CC[C@H]2NCCC[C@]2(C(=O)O)C1 | inconclusive: 12.6 µM [inhibitor, partial curve]
17 | O=C(c1ccccc1)N1CCn2c(nnc2-c2ccncc2)C1 | inconclusive: 10 µM [inhibitor, single point]
18 | CCOC(=O)c1c(C)[nH]c(CCC(=O)NCc2cc(OC)c(OC)c(OC)c2)c1C | inconclusive: 0.631 µM [inhibitor, full curve, poor fit]
19 | COc1ccc(CCN2C(=O)N(c3cccc(OC)c3)C(=O)C2CC(=O)Nc2ccccc2)cc1 (centres undefined) | inconclusive: 20 µM [inhibitor, single point]
20 | CC[C@@]1(O)CCN(C(=O)c2sc(C)cc2OC)C[C@H]1O | inactive
21 | CC1(COCC2CC2)COc2ccc(C(=O)Nc3cccnc3)cc2N1 (centres undefined) | inactive
22 | Oc1ccc(-c2nc(C3CC3)nc3c2CN(Cc2ccccc2C(F)(F)F)CC3)cc1 | inactive

Row | Structure (SMILES) | Potency
23 | COc1ccc(C2(C(=O)N3CCCCCC3c3nc(C4CC4)no3)CC2)cc1 (centres undefined) | inactive
24 | O=C(C[C@H]1NC(=O)c2ccccc2NC1=O)NC1CCCCC1 | inconclusive: 12.6 µM [inhibitor, partial curve, poor fit]
25 | O=c1[nH]nc2n1CCN(S(=O)(=O)c1ccc(F)cc1F)C2 | inconclusive: 39.8 µM [inhibitor, single point]
26 | CC1=C(c2ccc(C(C)C)cc2)S(=O)(=O)N=C1N1CCC(C(=O)Nc2ccc(C)cc2)CC1 | inconclusive: 31.6 µM [inhibitor, single point]
27 | CCOC(=O)c1[nH]c2c(c1Cc1ccccc1C)C(=O)CC(c1ccccc1)C2 (centres undefined) | inconclusive: 31.6 µM [inhibitor, partial curve, poor fit]
28 | COc1ccc(-c2cn3c(n2)sc2cc(C(=O)Nc4ccc(C)c(Cl)c4)ccc23)cc1 | inconclusive: 39.8 µM [inhibitor, single point]
29 | O=C(c1ccc(N2CCCC2)nc1)N1CCC(N2CCOCC2)CC1 | inactive
30 | COc1ccc(C(=O)N2CCCN(c3cc(-c4ccc(Br)cc4)[nH]n3)CC2)cc1F | inconclusive: 44.7 µM [inhibitor, single point]
31 | O=C(Nc1onc2c1CCCC2)c1ccccc1 | inactive
32 | Cc1csc(Nc2ccc3ncn(Cc4ccccc4)c(=O)c3n2)n1 | inconclusive: 56.2 µM [inhibitor, single point]
33 | O=C1COc2ccc(-c3ccsc3)nc2CN1Cc1ccc(C(F)(F)F)cc1 | inconclusive: 11.2 µM [inhibitor, full curve, poor fit]
34 | O[C@@H]1C[C@@H](c2nc(-c3ccccc3)no2)N(Cc2cccc(OC(F)(F)F)c2)C1 | inactive
35 | CS(=O)(=O)N1CCCC1c1noc(CCC(=O)NCCN2CCCCC2)n1 (centres undefined) | inconclusive: 3.16 µM [inhibitor, single point]
36 | O=C(NCC1CN(C(=O)Cc2cccc(OC(F)(F)F)c2)CC12CN(c1ccccc1)C2)c1ccccc1 (centres undefined) | inconclusive: 39.8 µM [inhibitor, single point]
37 | CCCOc1cccc(C2c3c(oc4ccc(F)cc4c3=O)C(=O)N2CCc2ccc(OC)cc2)c1 (centres undefined) | inconclusive: 20 µM [inhibitor, partial curve, poor fit]
38 | CCN(CC)C(=O)c1ccc(-c2nnc3ccc(NC(=O)C4CC4)cn23)cc1 | inactive
39 | COc1ccc(NC(=O)CCS(=O)(=O)c2nc(-c3ccc4c(c3)OCO4)cc(C(F)(F)F)n2)cc1OC | inconclusive: 39.8 µM [inhibitor, single point]
40 | C[C@@H]1CN(c2nc(-c3ccccc3)no2)CC[C@@]1(O)C1CCC1 | active: 14.1 µM
41 | CCOC(=O)c1ccc(N2C(=O)c3[nH]nc(-c4ccc(OC)cc4)c3C2c2cccc(O)c2)cc1 (centres undefined) | inconclusive: 12.6 µM [inhibitor, partial curve, poor fit]
42 | COCCNC(=O)C[C@@H]1C[C@H]2O[C@H](CNCc3ccncc3F)[C@@H](O)[C@H]2O1 | inconclusive: 12.6 µM [inhibitor, single point]
43 | O=C(NCCc1ccccc1)C1CCN(C(=O)c2ncn3c2COC(c2ccc(Cl)cc2)C3)CC1 (centres undefined) | inactive
44 | O=C(O)CCn1ncc2cc(OC3CCN(C(=O)OCc4ccccc4)CC3)ccc21 | inactive

Row | Structure (SMILES) | Potency
45 | COc1ccc(OC)c([S+](=O)([O-])c2nnn3c2nc(NCCCOC(C)C)c2ccccc23)c1 | inactive
46 | CCOc1cccc(CN2CCC3(CC2)CC(O)CCO3)c1 (centres undefined) | inconclusive: 3.98 µM [inhibitor, partial curve, poor fit]
47 | CC(C)(C)C1CCC2(CC1)NC(=O)N(CC(=O)N1CCN(c3ccc(F)cc3)CC1)C2=O (centres undefined) | inconclusive: 3.98 µM [inhibitor, full curve, poor fit]
48 | COc1ccc2[nH]c3c(c2c1)CCN(C)C31CCN(C(=O)c2cccnc2)CC1 | inconclusive: 17.8 µM [inhibitor, single point]
49 | Cc1nc2c(c(-c3ccc(O)cc3)n1)CN(Cc1ccccc1OC(F)(F)F)CC2 | inconclusive: 25.1 µM [inhibitor, partial curve]
50 | CCCCN(C)C(=O)CSc1c2c(nc3ccc(Cl)cc13)CCCC2 | inconclusive: 39.8 µM [inhibitor, single point]
51 | CC1(O)CC(c2nc(-c3ccc4ccc(-c5ccccc5)nc4c3)c3c(N)nccn23)C1 (centres undefined) | inconclusive: 13.6 µM [inhibitor, full curve]
52 | CCc1nn(CCCC(=O)NCc2ccccc2OC)c(=O)c2cc3occc3n12 | inconclusive: 25.1 µM [inhibitor, single point]
53 | CNC(=O)[C@@H]1C[C@H]2CN(Cc3ccc(OC)cc3)C(=O)c3cccc(c32)N1C(=O)c1cccs1 | inactive
54 | CCOc1cc(CNS(=O)(=O)c2ccc3c(c2)CC(=O)N3C)cc(OCC)c1OCC | inconclusive: 20 µM [inhibitor, partial curve, poor fit]
55 | Cc1cccc(-c2cccc(CN3CCCC(C(=O)N4CCN(C)CC4)C3)c2)c1 (centres undefined) | inactive
56 | COc1ccc(Br)cc1C(=O)Nc1ccc2oc(-c3cccnc3)nc2c1 | inactive
57 | c1ccc(OCc2noc(-c3ccc(NC4CCSC4)nc3)n2)cc1 (centres undefined) | inactive
58 | CC(=O)c1cccc(NC(=O)Cn2ccn3nc(-c4ccc(F)cc4)c(CO)c3c2=O)c1 | inconclusive: 28.2 µM [inhibitor, single point]
59 | CCCOc1ccccc1-c1nc(SCC(=O)c2ccccc2)n[nH]1 | inconclusive: 22.4 µM [inhibitor, single point]
60 | O=S(=O)(c1ccc(F)c(Cl)c1)N1CCC(n2cnnc2C2CC2)CC1 | inconclusive: 2.24 µM [inhibitor, partial curve, poor fit]
61 | CCN(CC)c1nn2c(=O)c(C(=O)NCCc3ccc(C)cc3)cnc2s1 | inconclusive: 0.501 µM [inhibitor, full curve]
62 | CCCC(=O)Nc1ccc2c(c1)nc(CN1CCN(C(=O)OCC)CC1)n2C(C)C | inconclusive: 3.16 µM [inhibitor, single point]
63 | CCOc1ccc(CNC(=O)c2ccc(Sc3ccc(Cl)cc3)c(NC(C)=O)c2)cc1 | inconclusive: 1.78 µM [inhibitor, partial curve, poor fit]
64 | Cc1cn2nc(C(=O)NCc3ccccc3C)cc2c(N(C)Cc2ccccc2)n1 | inconclusive: 8.91 µM [inhibitor, partial curve, poor fit]

— PubChem BioAssay AID1671194 (National Center for Advancing Translational Sciences (NCATS), 2021)
